As usually defined, the Kd is a measure of binding affinity in units of concentration. A lower Kd goes with higher affinity. By koff is commonly meant the first-order rate constant of dissociation. A higher koff goes with fast dissociation. Broadly, the kon is the second-order rate constant of association. Low values mean slower complex formation, high ones faster complex formation.

Experiment [1] has as its target T1, human IL-23 (human, UniProt Q9NPF7 20-189; P29460 23-328).
T1 sequence (looked up) 1: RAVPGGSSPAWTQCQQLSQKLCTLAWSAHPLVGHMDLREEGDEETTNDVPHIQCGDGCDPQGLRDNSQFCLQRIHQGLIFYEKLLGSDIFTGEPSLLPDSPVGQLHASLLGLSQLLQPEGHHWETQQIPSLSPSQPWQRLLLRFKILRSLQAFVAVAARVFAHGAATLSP
T1 sequence (looked up) 2: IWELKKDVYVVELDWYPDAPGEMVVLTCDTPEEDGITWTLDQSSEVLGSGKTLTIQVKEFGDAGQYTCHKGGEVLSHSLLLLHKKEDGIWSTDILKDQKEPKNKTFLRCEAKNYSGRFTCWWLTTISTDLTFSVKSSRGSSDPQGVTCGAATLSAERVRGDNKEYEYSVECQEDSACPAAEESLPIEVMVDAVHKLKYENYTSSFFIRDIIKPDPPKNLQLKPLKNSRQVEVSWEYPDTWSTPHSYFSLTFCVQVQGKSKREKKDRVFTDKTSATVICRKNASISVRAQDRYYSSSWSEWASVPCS
Description: cell-based or functional assay.

Another experiment has as its target T2, human IL-12 (Peprotech) (human, UniProt P29459 23-219; P29460 23-328).
T2 construct: Bought from Peprotech
T2 sequence (looked up) 1: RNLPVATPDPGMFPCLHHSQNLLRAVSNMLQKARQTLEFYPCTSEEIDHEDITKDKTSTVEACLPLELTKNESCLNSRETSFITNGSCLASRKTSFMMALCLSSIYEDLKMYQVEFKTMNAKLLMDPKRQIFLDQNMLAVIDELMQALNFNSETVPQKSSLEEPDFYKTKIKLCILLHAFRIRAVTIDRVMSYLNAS
T2 sequence (looked up) 2: T1 sequence (looked up) 2
Description: SPR (BIAcore 2000), bispecific captured on protein A, 25 C. Here is the method:
A BIAcore 2000 instrument is used to determine if the bispecific antibody of the invention will bind human IL-12. Unless noted, reagents and materials are purchased from GE Healthcare Life Sciences (Upsala, Sweden); measurements performed at 25° C., and HBS-P buffer (150 mM sodium chloride, 0.005% (w/v) surfactant P-20, and 10 mM HEPES, pH 7.4) is used as the running- and sample-buffer. Protein A (Calbiochem) is immobilized on flow cells 1, 2, 3 and 4 of a CM5 sensor chip using an amine coupling kit. Bispecific Antibody 1 (diluted to 2 μg/mL) is captured first on flow cell 2 (with a 5 second injection at 80 μL/min, yielding 460 response units (Δ RU) of Bispecific Antibody 1 capture). Flow cell 1 is a protein-A-only control. Next, human IL-12 (Peprotech) is injected (667 nM) for 2 minutes and no additional binding signal (0 Δ RU) is observed. A commercial antibody specific for IL-12 (anti-human IL-12 antibody sold under the trade name STELARA®) binds human IL-12.

Experiment [2] deals with T1, human IL-23. Description: SPR (Biacore 3000), bispecific captured on protein A, 37 C, 1:1 fit, n = 4. The procedure: (§1) A CM5 chip (Biacore P/N BR-1000-12) containing immobilized protein A (generated using standard NHS-EDC amine coupling) on all four flow cells (Fc) was used to employ a capture methodology. Bispecific antibody samples are prepared at approximately 2 μg/mL by dilution into running buffer. Human IL-23 is prepared at final concentrations of 25, 12.5, 6.25, 3.13, 0.78, 0.39, 0.20, 0.10 and 0 (blank) nM by dilution into running buffer. Human CGRP is prepared at final concentrations of 12.5, 6.25, 3.13, 0.78, 0.39, 0.20, 0.10 and 0 (blank) nM by dilution into running buffer.
(§2) Each analysis cycle consists of (1) capturing different bispecific antibody samples on separate flow cells (Fc2, Fc3, and Fc4) at a level to facilitate a 20-100RU maximum response signal from either the human IL-23 or CGRP; (2) injection of each human IL-23 or human CGRP concentration over all four Fc at 100 μL/min for 120 seconds followed by return to buffer flow for 600 seconds to monitor dissociation phase; (3) regeneration of chip surfaces with injection of 10 mM glycine, pH 1.5, for 30 seconds at 10 μL/min over all cells; and (5) equilibration of chip surfaces in HBS-EP+ running buffer. Data are processed using standard double-referencing and fit to a 1:1 binding model using BiaEvaluation software, version 4.1, to determine the association rate (kₒₙ, M⁻¹s⁻¹ units), dissociation rate (koff, s⁻¹ units), and Rₘₐₓ (RU units). The equilibrium dissociation constant (KD) is calculated from the relationship KD=koff/kₒₙ, and is in molar units.
On the technique in general: In SPR one partner is held on a chip, and binding of the other changes the refractive index at the surface.

Experiment [3] concerns the target T3, human CGRP (human, UniProt P06881 83-119, not fully specified).
T3 construct: also called Calcitonin Gene Related Peptide; Human CGRP peptide (Bachem H-1470)
T3 peptide (looked up): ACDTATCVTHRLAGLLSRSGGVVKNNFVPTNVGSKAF
Description: SPR (Biacore 3000), bispecific captured on protein A, 37 C, 1:1 fit, n = 2. Here is the method:
as §1, §2

Experiment [4] has as its target T1, human IL-23. Description: SPR (Biacore 3000), bispecific captured on protein A, 37 C, 1:1 fit. Here is the method: as §1, §2
In experiment [5] the target is T3, human CGRP. The description is as above. The procedure: as §1, §2

B1: Bispecific Antibody 1 (bispecific antibody, human IgG4 S228P, kappa, F234A L235A)
heavy: QVQLVQSGAEVKKPGSSVKVSCKASGYTFGNYWMQWVRQAPGQGLEWMGAIYEGTGKTVYIQKFADRVTITADKSTSTAYMELSSLRSEDTAVYYCARLSDYVSGFGYWGQGTTVTVSSASTKGPSVFPLAPCSRSTSESTAALGCLVKDYFPEPVTVSWNSGALTSGVHTFPAVLQSSGLYSLSSVVTVPSSSLGTKTYTCNVDHKPSNTKVDKRV[human IgG4 Fc with S228P F234A L235A (EU numbers) omitted here]GGGSGGGGSGGGGSQVQLVQSGAEVKKPGSSVKVSCKASGYPFTRYVMHWVRQAPGQCLEWMGYINPYNDGVNYNEKFKGRVTITADESTSTAYMELSSLRSEDTAVYYCARNWDTGLWGQGTTVTVSSGGGGSGGGGSGGGGSGGGGSDIQMTQSPSSLSASVGDRVTITCKASDHIGKFLTWYQQKPGKAPKLLIYGATSKLTGVPSRFSGSGSGTDFTLTISSLQPEDFATYYCQQYWSTPFTFGCGTKVEIK
light: DIQMTQSPSSLSASVGDRVTITCRASKDISKYLNWYQQKPGKAPKLLIYYTSGYHSGVPSRFSGSGSGTDFTLTISSLQPEDFATYYCQQGDALPPTFGGGTKVEIKRTVAAPSVFIFPPSDEQLKSGTASVVCLLNNFYPREAKVQWKVDNALQSGNSQESVTEQDSKDSTYSLSSTLTLSKADYEKHKVYACEVTHQGLSSPVTKSFNRGEC
modifications: glycosylated at asparagine residue 296 of SEQ ID NO: 1
notes: IgG-scFv format: anti-CGRP IgG4-PAA with an anti-IL-23p19 scFv at the C-terminus of each heavy chain; expressed in CHO; also called first exemplified bispecific antibody
With B1, in the experiment with human IL-23 [1], the “IC50 of IL-23-induced Stat 3 activity (luciferase) in Kit225 cells” value was 1.67 nM. The binding result with human IL-12 (Peprotech) is reported as “no binding (tested: 667 nM)”. In the experiment with human IL-23 [2], this molecule displayed a Kd of 0.21 nM, a koff of 0.00017 s⁻¹ and a kon of 3.7e+06 M⁻¹ s⁻¹. In the experiment with human CGRP [3], this molecule displayed a Kd of 0.026 nM, a koff of 0.00025 s⁻¹ and an association rate constant (kon) of 3e+07 M⁻¹ s⁻¹.

B2: Bispecific Antibody 2 (bispecific antibody, human IgG4 S228P, kappa, F234A L235A)
heavy: QVQLVQSGAEVKKPGSSVKVSCKASGYTFGNYWMQWVRQAPGQGLEWMGAIYEGTGKTVYIQKFADRVTITADKSTSTAYMELSSLRSEDTAVYYCARLSDYVSGFGYWGQGTTVTVSSASTKGPSVFPLAPCSRSTSESTAALGCLVKDYFPEPVTVSWNSGALTSGVHTFPAVLQSSGLYSLSSVVTVPSSSLGTKTYTCNVDHKPSNTKVDKRV[human IgG4 Fc with S228P F234A L235A (EU numbers) omitted here]GGGSGGGGSGGGGSQVQLVQSGAEVKKPGSSVKVSCKASGYPFTRYVMHWVRQAPGQCLEWMGYINPYNDGVNYNEKFKGRVTITADESTSTAYMELSSLRSEDTAVYYCARNWDTGLWGQGTTVTVSSGGGGSGGGGSGGGGSGGGGSDIQMTQSPSSLSASVGDRVTITCKASDHIGKFLTWYQQKPGKAPKLLIYGATSKLTGVPSRFSGSGSGTDFTLTISSLQPEDFATYYCQTYWSTPFTFGCGTKVEIK
light: B1 light
modifications: glycosylated at asparagine residue 296 of SEQ ID NO: 2
notes: As Bispecific Antibody 1 but with Q684T in LCDR6 of the scFv; transiently expressed in CHO; also called second exemplified bispecific antibody
In the experiment with human IL-23 [4], B2 returned a dissociation constant Kd of 0.22 nM, a koff of 0.00016 s⁻¹ and an association rate constant (kon) of 730000 M⁻¹ s⁻¹. In the experiment with human CGRP [5], this molecule registered a Kd of 0.077 nM, an off-rate (koff) of 0.00018 s⁻¹ and a kon of 2.3e+06 M⁻¹ s⁻¹.

The values above are taken from patent US20180291093A1 (Eli Lilly, published 2018).
